Among all 340,000 compounds or so, about 6,900 (2%) were called active. No stated cut-off is given here; in the data, active means inhibition above about 30%; inactive means below that, where a call was filed. The entries are a selection whose mix differs from that of the whole data set. Entries without a call were filed so in the source.

In the assay the target is D(2) dopamine receptor (Homo sapiens) (UniProt P14416). The assay can be described thus: HTS Assay for Allosteric Antagonists of the Human D2 Dopamine Receptor: Primary Screen for Antagonists. Further: 0% is about no effect. The note with it: HEK293 TREx D2 cells, calcium flux, dopamine EC80; at 10 µM; stronger effect = higher value. Summed up: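 Calcium flux kinetic readout in an inducible HEK293 TREx D2 line plated overnight at 30 C. After 180 s compound exposure, an EC80 dopamine challenge follows with another 180 s kinetic read to detect antagonism.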
UniProt P14416, sequence (P14416 whole entry, looked up): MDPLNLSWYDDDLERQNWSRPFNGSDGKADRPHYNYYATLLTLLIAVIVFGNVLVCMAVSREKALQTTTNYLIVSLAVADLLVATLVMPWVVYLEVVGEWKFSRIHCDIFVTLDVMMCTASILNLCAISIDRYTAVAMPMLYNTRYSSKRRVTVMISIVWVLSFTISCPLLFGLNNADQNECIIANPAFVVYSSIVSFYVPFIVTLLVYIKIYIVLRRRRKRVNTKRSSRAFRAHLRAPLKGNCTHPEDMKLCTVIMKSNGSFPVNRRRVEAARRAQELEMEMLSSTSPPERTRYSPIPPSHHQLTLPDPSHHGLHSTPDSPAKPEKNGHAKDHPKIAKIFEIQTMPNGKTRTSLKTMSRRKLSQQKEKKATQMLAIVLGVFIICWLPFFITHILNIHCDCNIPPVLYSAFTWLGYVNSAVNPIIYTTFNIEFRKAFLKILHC
As to `CC(=O)N1CCN(C(=O)c2cc(S(=O)(=O)N(C)Cc3ccccc3)ccc2Cl)CC1`, the inhibition is active: 30.1%.

For the compound `COc1cccc(N2CCN(C(=O)Cn3c(-c4cccs4)cc4ccccc43)CC2)c1`, the inhibition was -5.19%.

Regarding `COc1ccc(CN2C(=O)c3ccccc3C2C(=O)NCCc2ccccc2)c(OC)c1` (stereo unspecified), the inhibition stood at 22.3%.

As to `CC(C)CCNC(=O)CN1N=C(c2ccc(Cl)cc2)CCC1=O`, the inhibition is -6.51%.

For `CC1=C(C(=O)Nc2ccc(C)cc2C)C(c2cccs2)n2nc(SCc3ccccc3Cl)nc2N1` (stereo unspecified), the inhibition is -9.59%.

Take `O=C(Nc1ccc(-c2cn3cccnc3n2)cc1)c1cc(Br)ccc1Cl`: the inhibition was 9.54%.

As for `CCc1ccccc1NC(=O)c1cnc2sc(N3CCCC3)nn2c1=O`, the inhibition worked out at 11.7%.

In the case of `CCOc1ccc(-c2nn(CC(=O)NC3CCCC3)c3c2cnc2ccc(F)cc23)cc1`, the inhibition is -8.13%.

Regarding `COc1cccc(C(=O)Nc2cccc(-c3cn4c(C)csc4n3)c2)c1OC`, the inhibition turned out to be 15.5%.

On to `Cc1cccc(N2CCN(C(=O)CCn3c(=O)c4cccn4c4cccnc43)CC2C)c1` (stereo unspecified), for which the inhibition came to 1.81%.

In the case of `COc1ccc(Cl)cc1NC(=O)NCCN1CCCCC1`, the inhibition was active: 58.2%.

Consider `Cc1cccc(-c2nc3c4ccccc4nc(N4CCN(c5cc(C)ccc5C)CC4)n3n2)c1`, for which the inhibition was -16.3%.

In the case of `COc1ccc(-c2cc(C(F)(F)F)nc(SCC(=O)NCCc3ccccc3)n2)cc1OC`, the inhibition came to 10.4%.

In the case of `CCc1sc(Nc2cccc(C)c2C)nc1-c1cc2cccc(OC)c2oc1=O`, the inhibition is 2.37%.

Regarding `COc1ccc(F)c(-c2nc(CN3CCC(c4ccccc4)CC3)c(C)o2)c1`, the inhibition is active: 93.5%.

Take `COc1cc(OC)cc(-n2c(=O)c3sccc3n(Cc3c(C)cc(C)cc3C)c2=O)c1`: the inhibition is -1.51%.

For the compound `Cc1ccc(NC(=O)c2cc(S(=O)(=O)N3CCc4ccccc43)ccc2F)cc1Cl`, the inhibition came to 0.88%.

As for `COc1ccc(NC(=O)CSc2nc3ccccc3n2Cc2cccc(OC)c2)cc1`, the inhibition was -20.8%.

Turning to `CCOc1ccc(NC(=O)C2CCN(c3nnc(-n4c(C)ccc4C)s3)CC2)cc1`, the inhibition was determined as 2.91%.

On to `Cc1cc(S(=O)(=O)Nc2ccc(-c3ccc(N4CCCCCC4)nn3)cc2)c(C)cc1Cl`, for which the inhibition amounted to 14%.

As for `Cc1nc(-c2cccnc2)sc1CCNS(=O)(=O)c1ccc(F)cc1`, the inhibition was determined as 0.663%.

Turning to `COCCNC(=O)c1cccc(-n2c(C)nc3cccnc32)c1`, the inhibition was -5.98%.

Consider `CC(=O)Nc1ccc(OCC(O)CN2CCN(c3ccc(F)cc3)CC2)cc1` (stereo unspecified), for which the inhibition is active: 44.6%.

`CCc1ccccc1Nc1cc(C(=O)NC(C)c2ccccc2)c2ccccc2n1` (stereo unspecified): the inhibition was -12%.

For the compound `COc1cc(C2c3c(-c4cc(C)ccc4O)n[nH]c3C(=O)N2CCCO)ccc1OCCC(C)C` (stereo unspecified), the inhibition is -22.2%.

For `CCCc1nn2c(=O)cc(COC(=O)c3ccccc3NC(=O)c3ccc(Cl)cc3)nc2s1`, the inhibition was 18.4%.

Turning to `CCOC(=O)c1ccccc1NC(=O)N1CCC(CN2CCCCC2)CC1`, the inhibition was 3.34%.

Consider `CCOc1ccc(NC(=O)CN2CCCN(Cc3cc(C)ccc3C)S2(=O)=O)cc1`, for which the inhibition is 8.42%.

Turning to `CCCC(=O)Nc1ccc(-c2nc3ncccc3o2)cc1C`, the inhibition was -12.4%.

For `CCOC(=O)c1cccc(NC(=O)CCn2nc(C)c(S(=O)(=O)N3CCCCC3)c2C)c1`, the inhibition turned out to be 7.51%.

As for `Cc1ccc(NC(=O)C(C)Sc2nc(=O)cc(N)n2-c2ccccc2)cc1` (stereo unspecified), the inhibition was found to be 6.89%.

On to `Cn1cc(S(=O)(=O)c2cccc(Cl)c2)c(=O)c2cc(F)c(N3CCN(c4ccccc4)CC3)cc21`, for which the inhibition came out at 23.6%.

For the compound `Cc1ccc2c(=O)c(C(=O)c3cccc(Cl)c3)cn(CC(=O)Nc3ccc4c(c3)OCCO4)c2n1`, the inhibition is -3.79%.

For `O=C(CSc1nnc(NC(=O)Nc2ccccc2)s1)Nc1cccc(F)c1`, the inhibition came to 21.7%.

For the compound `COc1ccc(CCCc2nnc(SCC(=O)Nc3ccc(OC)cc3)o2)cc1`, the inhibition was -12.7%.

Turning to `CN1C(=O)Cc2cc(S(=O)(=O)CCC(=O)Nc3ccc(F)c(Cl)c3)ccc21`, the inhibition is -11.2%.

Consider `COc1ccc(C2(c3ccc(OC)cc3)NC(=O)N(CC(=O)NCC(C)c3ccccc3)C2=O)cc1` (stereo unspecified), for which the inhibition is active: 67.8%.

In the case of `O=C(Nc1cc(F)ccc1F)N1CCC(CN2CCCC2)CC1`, the inhibition was 3.51%.

As to `Cc1ccc(C)c(NC(=O)c2cc(S(=O)(=O)N3CCCCCC3)ccc2F)c1`, the inhibition is 14.8%.

With `CN(C)CCN(Cc1ccco1)C(=O)c1oc2ccccc2c1NC(=O)c1ccccc1`, the inhibition is 18.1%.

As to `Cc1ccccc1C(=O)OCc1cc(=O)n2nc(-c3cccs3)sc2n1`, the inhibition was -16%.

For `CCOC(=O)c1c(CN2CCCCC2)n(C)c2cc(Br)c(O)c(CN(C)C)c12`, the inhibition was active: 60.5%.

Turning to `COc1cccc(CCNC(=O)c2c(O)nc3ccccn3c2=O)c1`, the inhibition stood at 0.995%.

Take `CCOc1ccccc1NC(=O)c1cnn2c(C(F)F)cc(-c3ccccc3)nc12`: the inhibition amounted to 12.2%.

Take `COCCCNC(=O)C1CCN(c2nn3cc(-c4ccc(F)cc4)nc3s2)CC1`: the inhibition is 12.7%.

As to `CCOc1ccc(C(=O)Nc2c3c(nn2C(C)(C)C)CSC3)cc1OCC`, the inhibition was active: 30.1%.

For the compound `Cc1ccc(OCC(=O)N(Cc2ccco2)Cc2ccc(C)o2)cc1`, the inhibition is -27.3%.

Consider `COc1ccc(-c2cc(C(F)(F)F)n3nc(C(=O)Nc4ccccc4SC)cc3n2)cc1OC`, for which the inhibition is -13.4%.

Regarding `CCC(C)NC(=O)c1nn(-c2ccc(C)cc2)c(=O)n(C)c1=O` (stereo unspecified), the inhibition is 26.4%.

Consider `COc1cc2c(=O)n(CCC(=O)NCC3CCCO3)c(=O)n(CC(=O)Nc3ccc(C)c(C)c3)c2cc1OC` (stereo unspecified), for which the inhibition was -14.1%.

Take `CCCCCn1c(-c2ccc(OC)c(OC)c2)nc2ccccc21`: the inhibition was -1.59%.

Take `Cc1ccc(Cl)cc1N1CCN(S(=O)(=O)c2ccc3c(c2)CCCN3C(=O)C2CCC2)CC1`: the inhibition was -25.7%.

Consider `O=C(NCCc1ccccc1)c1cc(Sc2cccc(Cl)c2)nc2ccccc12`, for which the inhibition was -4.78%.

For the compound `COc1cc(OC)c(NC(=O)Cn2c(=O)oc3cc(S(=O)(=O)N4CCCC4)ccc32)cc1Cl`, the inhibition worked out at 1.58%.

On to `Cc1ccc(CN2C(=O)c3oc4ccc(C)cc4c(=O)c3C2c2ccc(O)cc2)cc1` (stereo unspecified), for which the inhibition was -10.2%.

Turning to `COc1ccc(NS(=O)(=O)c2ccc3[nH]c4c(c3c2)CCCC4)cc1Cl`, the inhibition was 5.42%.

As to `Cc1ccc(C)n1-c1nnc(N2CCCC(C(=O)NCc3cccc(Cl)c3)C2)s1` (stereo unspecified), the inhibition was 0.869%.

Take `O=C(NC1CCN(Cc2ccccc2)CC1)c1ccc(Cl)cc1Cl`: the inhibition is active: 61.4%.

As to `CCc1ccc(-n2c(Cc3ccccc3)nnc2SCc2nc(-c3cccs3)no2)cc1`, the inhibition was 13.6%.

As for `CNC(=O)c1ccc(NC(=O)C2CCN(S(=O)(=O)c3cccc(C(F)(F)F)c3)CC2)cc1`, the inhibition was active: 30.3%.

For `CC1=C(C(=O)NCc2ccc(Cl)cc2)C2(CCCCC2)OC1=O`, the inhibition was -6.85%.

(Values after PubChem BioAssay AID485344 (National Center for Advancing Translational Sciences (NCATS), 2010).)
